Reference: the RNAGym collection of RNA variant scans (doi:10.1073/pnas.2313332121)
Variants at the background level are over-represented here.

B1: TPR 5TU (parent)
chain: GGAUCUUCUCGAUCUAACAAAAAAGACAAAUCUGCCACAAAGCUUGAGAGCAUCUUCGGAUGCAGAGGCGGCAGCCUUCGGUGGCGCGAUAGCGCCAACGUUCUCAACUAUGACACGCAAAACGCGUGCUCCGUUGAAUGGAGUUUAUCAUG

Variants of: B1
Assay: polymerase ribozyme fitness, log enrichment relative to wild type (log ratio); higher = more active; in vitro selection for triplet polymerase activity
In short: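 Both subunits of a heterodimeric triplet polymerase ribozyme were given their own mutant library, built by PCR and transcribed. Each library was annealed with a biotinylated primer, the partner subunit and triplets, incubated frozen at −7 °C, and its extended constructs gel-excised, captured on streptavidin beads and amplified by RT-PCR, all in one round done in triplicate. Fitness is the logarithm of genotype enrichment relative to wild-type enrichment, with replicates averaged by inverse-variance weighting. That logarithm is base 2, and Illumina-sequenced genotypes needed ≥10 input reads and ≥1 read per output.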

Variant | polymerase ribozyme fitness (log ratio)
GGAUCUUCUGGAUCUAACAAAAAAAACAAAUCUGCCACAAAGCUUGAGAGCCUCUUCGCAUGCAGAGGCGGCAGCCUUCGGUGGCGAGAUAGCGCCAACGAGCUCAACUAUGACACGCAAAAUGCGUGCUCCGUUGAAUGGAGCUUAUCCUG [C10G G25A A52C G59C C87A U101A U102G C123U U144C A150C] | ≤ -4.2
GGAUCUUCUGGAUCUAACAAAAAAGACAAAUCUGCCACAAAGCUUGAGAGCAUCUUCGAAUGCAGAGGCGGCAGCCUUCGGUGGCGCGAUAGCGCCAACGUUCUCAACUAUGACACGCAAAACGCGUGCUCCGUUGAAUUGAGUUUAUCAUG [C10G G59A G140U] | ≤ -4.2
GGAUCUUCUGGAUCUAACAAAAAAGACAAAUCUGCCACAAAGCUUGAGACCAUCUUCGGAUGCAGAGGCGGCUGCCUUCGGUGGUGCGAUAGCGCCAACGUUCUCAACUAUGACACGGAAAACGCGUGCUACGUUGAAUGGAGUUUAUCAUG [C10G G50C A73U C85U C118G C131A] | ≤ -4.2
GGAUCUUCUGGAUCUAACAAAAAAGACAAAUCUGCCACAAAGCUUGAGAGCAUCUUCGGAUGCAGAGGCGGCAGCCUUCGGUGGCGCGAUAGCACCAACGUUCUCAACUAUGACACGCAAAACGCGUGCUCCGUUGAAUGGAGUUUAUCAUG [C10G G94A] | -3.44
GGAUCUUCUGGAUCUAACAAAAAAGACAAAUCUGCCACAAAGCUUGAGAGCAUCUUCGCAUGCAGAGGCGGCAGCCUUCGGUGGCGCGAUUGCGCCAACGUUCUCAACUAUGACACGCAAAACGCGUGCUCCGUUGAAUGGAGUCUAUCAUG [C10G G59C A91U U145C] | ≤ -4.2
GGAUCUUCUGGAUCUAACAAAAAAGACAAAUCUGCCACAAAGCUUGAGAGUAACUUCGGAUGCAGAGGCGCCAGCCUUCGGUGGCGCGAUAGCGCCAAGGUUCUCAACUAUGACACGCAAAACGCGUGCUCCGUUGAAUGGAGUUUAUCAUG [C10G C51U U53A G71C C99G] | ≤ -4.2
GGAUCUUCUGGAUCUAACAAAAAAGACAAAUCUGCCACAAAGCUUGAGAGCAUCUUCGGAUGCAGAGGAGGCAGCCUUCGGUGUCGCGAGAGCGCCAACGUUCUCAACUAUGACACGCAAAACGCGUGCUCCGUUGAAUGGAGUUUAUCAUG [C10G C69A G84U U90G] | ≤ -4.2
GGAUCUUCUGGAUCUAACAAAAAAGACAAAUCUGCCACAAAGCUUGAGAGCAUCUUCGGAUGCAGAGGCGGCAGCCUUCGGUGGCGUGAUAGGGCCAACGUUCUCAACUAUGACACGCAAAACGCGUGCUCCGUUGAAUGGAGUUUAUCAUG [C10G C87U C93G] | ≤ -4.2
GGAUCUUCUGGAACUAACAAAAAAGACAAAUCUGCCACAAAGCUUGAGAGCAUCUUCGGAUGCAGAGGCGGCGGCCUUCGGUGUCGCGAUAGCGCCAAGGUUCUCAUCUAUGACACGCAAAACGCGUGCUCCGUUGAACGGAGUUUAUCAUG [C10G U13A A73G G84U C99G A107U U139C] | ≤ -4.2
GGAUCUUCUGGAUCUAACAAAAAAGACAAAUCUGCCACAAAUCUUGAGAGCAUCUUCAGAUGCAGAGGCGGCAGCCUUCGGUGGCUCGAUAGCGCCUACGGUCUCAACUAUGACACGCAAAACGCGUGCUCCGUUGAAUGCAGUUUAUCAUG [C10G G42U G58A G86U A97U U101G G141C] | ≤ -4.2
GGAUCUUCUGGAUCUAACAAAAAAGACAAAUCUCCCACAAAGCUUGAGAGCAUCUUCGGAUGCAGAGGCGGCAGCCUUCGGUGGCGCGAUAGCGCCAACGUUCUCAACUAUGACACGCAAAACGCGUGCUCCGUUGAAUGGAGUUUAUCAUG [C10G G34C] | ≤ -4.2
GGAUCUUCUGGAUCUAACAAAAAAGACAAAUCUGCCACAAAGCUUGAGAGCAUCUUCACAUGCAAAGGCGGCAGCCUUCGGUGGCGCGAUAGCGGAAACGUUCUCAACUAUGACACGCACAACGCGUGCUCCGUUGAAUGGAGUUUAUCAUG [C10G G58A G59C G65A C95G C96A A120C] | ≤ -4.2
GGAUCUUCUGGAUCUAACAAAAAAGACAAAUCUGCCACAAAGUUUGAGAGCAUCUUCGGAUGCAGAGGCGGCAGCCUUCGGUGGCGCGAUAGCGUCAACGUUCUCAACUAUGACACGCAAAACGCGUGCUCCGUUGAAUGGAGUUUAUCAUG [C10G C43U C95U] | ≤ -4.2
GGAUCUUCUGGAUCUAACAAAAAAGACAAAUCUGCCACAAAGCUUGAGAGCAUCUUCGGAUGAAGAGGCGGCAGCCUUCGGUCGCGCUAUAGCGCCAACGUUCUCAAGUAUGAGACGCAAAACGAGUGCUCCGUUGAAUGGAGUUUAUCAUG [C10G C63A G83C G88U C108G C114G C125A] | ≤ -4.2
GGAUCUUCUGGAUCUAACAAAAAAGACAAAUCUGCCACAAAGCUUGAGAGCAUCUUCGGAUGCAGAGGCGGCAGCCUUCGGUGGCGCGAUAGAGCCAACGUUCUCAACUAUGACACGCAAAACGCGUGCUCCGUUGAAUGGAGUUUAUCAUG [C10G C93A] | ≤ -4.2
GGAUCUUCUGGAUCUAACAAAAAAGACAAAUCUGCCACAAAGCUUGAGAGCAUCUUCGGAUGUAGAGGCGGCAGCCUUCGGUGGCGCGAUAGCGCCAACGUUCUCAACUAUGACACGCAAAACGCGUGCUCCGUUGAAUGGAGUUUAUCAUG [C10G C63U] | ≤ -4.2
GGAUCUUCUGGAUCUAACAAAAAAGACAAAUCUGCCACAAAGCUUGAGAGCAUUUACGGAUUCAGAGGCGGCAGCCUUCGGUGGCGCGAUAGCACCAACGUUCUCAACUAUGACACGCAAAACGCGUGCUCCGUUGAAUGGAGUUUAUUAUG [C10G C54U U56A G62U G94A C149U] | ≤ -4.2
GGAUCUUCUGGAUCUAACAAAAAAGACAAAUCUGCCACAAAGCUUGAGAGCAUCUUCGGAUGCAGAGGCGGCAGCCUUCGGUGGCGCGAUAGCGUCAACGUUCUCAAUUAUGACACGCAAAACGUGUGCUCCGUUGAAUGGAGUUUAUCAUG [C10G C95U C108U C125U] | ≤ -4.2
GGAUCUUCUGGAUCUAACAAAAAAGACAAAUCUGCCACAAAGCUUGAGAGCAUUUUCGGAUCCAGAGGCGGCAGCCUUCGGUGGCUCGAUAGCGCCAACGUUCUCAACUAUGACACGCAAAACGCGUGCUCCGUUGAAUGGAGUUCAUCAUG [C10G C54U G62C G86U U146C] | ≤ -4.2
